# Among all 150,000 compounds or so, about 540 (0.36%) showed an effect of 50% or more. The list shows a part of the results.
# Test system: Plasmodium falciparum
# Assay: Primary screen in NF54 nanoGlo assay, in single point, at 2uM, 72h; a lower Z score goes with more inhibition
# Assay type: functional, Erythrocyte
# Details: timepoint 72 hour
SMILES,% Inhibition [%],Z score
O=c1[nH]nc(CNCc2c(F)c(F)c(F)c(F)c2F)[nH]1,-2,0.23
O=S(=O)(NC1(c2nccs2)CCCC1)c1ccc(Cl)cc1,-12,1.42
O=C(Cc1cccs1)Nc1ccc(Cl)cn1,-3,0.39
O=C([C@@H]1CNCCN1C(=O)CCCc1c[nH]c2ccccc12)N1CCCC1,-9,1.48
CC1CCC(C(=O)O)N(C(=O)OC(C)(C)C)C1 (stereo not drawn),1,-0.09
Cc1ccc(CN(C)C(=O)N[C@H]2CCCc3occc32)nc1,-2,0.2
Cc1nn(C)c2cc(NC(=O)N3C[C@@H](C4CC4)C[C@H]3C3CC3)ccc12,10,-1.86
O=C(NC1CCc2c1ccc(Cl)c2Cl)N1CCC(F)(CO)C1 (stereo not drawn),-8,1.28
CCOCCc1nc(Cc2noc(C)n2)no1,-8,1.5
O=C(N[C@H]1CCCc2c1cnn2-c1ccccn1)C1CCS(=O)(=O)CC1,1,-0.23
c1coc(-c2nnc(-c3ccc(-n4ccnc4)nc3)o2)c1,-17,1.98
O=C(Nc1n[nH]c(CCC2CCCC2)n1)c1[nH]nc2c1CCC2,-1,0.15
CCCNC(=O)N1C[C@@H]2CN(C(=O)c3ccccc3)C[C@]2(C(=O)N(C)C)C1,2,-0.34
C[C@@H](CCCc1ccccc1)C(=O)N(C)Cc1c[nH]cn1,-2,0.24
CO[C@H]1C[C@@H](O)C12CCN(c1nccc(N)n1)CC2,-6,1.23
COc1ccc(OC)c(S(=O)(=O)Nc2ncn(Cc3ccccc3C)n2)c1,-7,0.92
O=C(Cc1cncs1)N1CCC2(CC1)CNCc1ccccc1O2,-11,1.19
Cc1ncc(Cl)c(C(=O)N2CCC3(CC2)[C@H](O)C[C@@H]3OCCO)n1,2,-0.33
COc1ccc(C2(NC(=O)c3nn(C)cc3C)CCOCC2)cc1F,6,-1.02
O=S(=O)(NCCO)c1ccc(-c2cnc3c(c2)CCCO3)cc1,-6,0.57
C=CCN(C(=O)Cc1csc(C)n1)[C@@]1(C)CCS(=O)(=O)C1,-11,1.29
CN(C)c1nc(CN(C)C2CCCCCC2)ns1,-14,1.22
N#CCC(=O)c1cccc(Br)c1,-7,0.75
O=C(C1CC=CC1)N1CCC[C@H](C(=O)N2CCCC2)C1,-3,0.63
C[C@H]1CCCCN1C(=O)COc1ccccc1-c1nnco1,-17,2.37
CCCO[C@H]1CCCN(CC(=O)NCc2cccnc2)CC1,-2,0.4
COCCCN(Cc1c(C)nn(-c2ccccc2)c1N1CCN(C)CC1)S(=O)(=O)c1ccc(OC)cc1,1,-0.2

SMILES,% Inhibition [%],Z score
O=S1(=O)NC[C@H](O)CN(CC2CCCCC2)C[C@@]2(COc3cc(-c4cccc(C(F)(F)F)c4)ccc31)C[C@@H](O)[C@@H](O)C2,7,-0.79
CCCC1(C2CCN(C(=O)CCCc3ccccc3)CC2)NC(=O)N(CCC2CCCN2C)C1=O (stereo not drawn),5,-0.96
O=C(Nn1cnc2ccccc2c1=O)c1cnccn1,34,-0.46
Cc1cc(CS(=O)(=O)N2CCN(C)c3cc(Cl)ccc32)no1,-2,0.31
Cc1ccccc1N1CCN(C(=O)C[C@H]2CCCCN(C)C2=O)CC1,-6,1.06
O=C(CCCn1cccn1)N[C@@H]1[C@@H]2CCO[C@@H]2[C@@H]1C1CCCC1,-2,0.23
CC[C@](C)(NCC(=O)NCc1ccco1)c1nccs1,-7,0.89
CN(C)c1ccc(NC(=O)OCC(F)(F)F)cc1,-5,0.88
N#Cc1ccc(NCCNS(=O)(=O)c2cccs2)cn1,-13,1.94
CC(C)c1n[nH]c2c1CN(c1ccnc(C(=O)NCc3cccnc3)c1)CC2,12,-1.66
CN=C(NCc1ccccc1)NCc1cnc(C)s1,3,-0.35
O=C(c1cnoc1-c1ccccc1)N1CCCN(C(=O)[C@@H]2CCCO2)CC1,-7,1.31
Cc1ccccc1Nc1nc(N)nc(Cn2nnnc2C(C)(C)C)n1,4,-0.67
COc1ccc([C@H](CO)N(C)Cc2ccc(-n3cccn3)cc2)cc1,-8,1.45
CC(C)S(=O)(=O)N1CCC[C@H](c2nnc(CN3CCCCC3)n2C)C1,-5,0.81
COC(=O)N1CCn2nc(CN3CCOc4ccc(CO)cc4C3)cc2C1,0,0.03
Cn1ccc(C(=O)NC(C2CC2)C2CC2)cc1=O,0,0
COc1ccc(-c2ncc(C#N)c(N)n2)cn1,0,-0.03
CC(C)Oc1cncc(Br)c1,5,-0.82
CC(C)C[C@H](NC(=O)CCc1ccccc1)C(=O)N(C)C,-10,1.79
CC1(C)CN(C(=O)Cn2cc(NC(=O)c3cnccn3)cn2)CCO1,-8,1.24
COCCn1cnnc1CCNC(=O)N1CCOc2ccc(CO)cc2C1,-14,2.13
CO[C@H]1C[C@H]2CN(C(=O)NCc3ccco3)[C@@H](Cc3ccccc3)C(=O)N2C1,-8,1.21
CC(C)CCNC(=O)[C@]1(C)Cn2c(cc3ccccc32)C(=O)N1Cc1ccccc1F,-6,0.88
CCc1cc(N2CCC(N[C@@H](CC)c3ncnn3C)CC2)nc(N(C)C)n1,5,-0.91
C/C=C/CN1C(=O)N[C@@](Cc2cccc(OC)c2)(C2CCNCC2)C1=O,-4,0.64
N#CC1=NN(c2ccc(OCc3ccccc3)cc2)[C@H]2CCCCCN2C1=O,-31,3.58

# — ChEMBL document CHEMBL4888484, “Replenishing the malaria drug discovery pipeline: Screening and hit evaluation of the MMV Hit Generation Library 1 (HGL1) against asexual blood stage Plasmodium falciparum ,using a nano luciferase reporter read-out” (2022)
